Assay results published in PubChem BioAssay AID1347073 (National Center for Advancing Translational Sciences (NCATS), 2019).
Among all 45,000 compounds or so, about 200 (0.44%) were called active. Another 7% or so got no clear call; they are omitted. Calls come from the whole dose curve; as a rule, active = well fitted activation curve with a large enough effect; inconclusive = small, poorly fitted or top-dose-only effect; inactive = no such curve, though single readings can be large or run the other way. The list shows a part of the results.

Assay: qHTS of TDP-43 Inhibitors: NCGC Sytravon Library Screen; note: nearly all actives have a fitted effect of over 55% in size; for growth rescue (activation): 0% is about no effect
Conditions: yeast TDP-43 toxicity rescue, BacTiter-Glo growth, 24 h; series mostly up to 46.1 µM; growth rescue (activation): at the top concentration
Procedure, shortened: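 TDP-43-expressing yeast, pregrown in raffinose, seeded at OD600 0.02 in galactose medium with compound for 24 hr at 30 deg C. Growth read by BacTiter-Glo luminescence, so rescue of toxicity appears as activation.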
Potency is the fitted concentration of half-maximal effect.

Row | Compound | growth rescue (activation) | Potency
1 | Cc1ccc(/C=N/n2c(-c3cccnc3)n[nH]c2=S)o1 | inactive: 10.1% | –
2 | CN1CCN(S(=O)(=O)CC2(C)C3CCC2(C)C(=O)C3Br)CC1 (stereo not drawn) | inactive: 26.3% | –
3 | O=C(CN1CCC(NC(=O)c2cccc(F)c2)CC1)NCc1cccs1 | inactive: -0.496% | –
4 | CCOC(=O)C1CCCN(Cc2nc(C3CC3)no2)C1 (stereo not drawn) | inactive: 1.74% | –
5 | Cc1ccccc1C(=O)c1cccn1CC(=O)NCc1ccccc1 | inactive: 11.1% | –
6 | CC(C)C(N)c1csc(Nc2ccc(C(=O)N(C)Cc3ccccc3)cn2)n1 (stereo not drawn) | inactive: 0.813% | –
7 | O=[N+]([O-])c1cc(/C=N/n2c(-c3cccnc3)n[nH]c2=S)ccc1Cl | inactive: -11.4% | –
8 | CC(C)c1nnc(NC(=O)C2CCN(C(=O)c3ccco3)CC2)s1 | inactive: 15.9% | –
9 | CC1(Oc2ccccc2-c2ccn[nH]2)CCN(Cc2ccc(OC(F)(F)F)cc2)C1 (stereo not drawn) | inactive: 26.8% | –
10 | O=C(CCl)Nc1cccc(-c2cnc3ccccc3n2)c1 | – | active: 12.6 µM
11 | O=C(O)COCC(=O)Nc1ccc(-n2cnnn2)cc1 | inactive: 9.64% | –
12 | CN(C(=O)COC(=O)/C=C/c1ccc(S(=O)(=O)N2CCc3ccccc32)cc1)C1CCS(=O)(=O)C1 (stereo not drawn) | inactive: -5.89% | –
13 | Cc1ccc(-c2cc(-c3ccccc3)c(C#N)c(Br)n2)cc1 | inactive: 14% | –
14 | CCOC(=O)N1CCC(NC(=O)C(C)n2c3ccccc3c3cnn(C)c(=O)c32)CC1 (stereo not drawn) | inactive: 11.9% | –
15 | CC(=O)N1CCc2cc(S(=O)(=O)NC(CC(C)C)C(=O)Nc3ccc4c(c3)OCCO4)ccc21 (stereo not drawn) | inactive: 12.5% | –
16 | CC(=O)c1cc2c(cc1N/C(=N/S(=O)(=O)c1ccc(C)cc1)c1ccccc1)OCO2 | inactive: -5.19% | –
17 | Cc1ccc(NC(=O)C2(C)CCCN2C)cc1C (stereo not drawn) | inactive: 10.9% | –
18 | COCCNC(=S)Nc1ccc2nc(N3CCN(C)CC3)cc(C)c2c1 | inactive: -27.8% | –
19 | CC(=O)NCCc1nc2ccccc2n1Cc1cccc(C)c1 | inactive: 17.4% | –
20 | Cc1ccc(C(C)C)c(OCC(=O)NC(=S)Nc2ccccc2N2CCOCC2)c1 | inactive: 15% | –
21 | CC(=O)c1cccc(N(C(=O)c2ccco2)C(C(=O)NC2CCCC2)c2ccccc2F)c1 (stereo not drawn) | inactive: 9.16% | –
22 | CCOc1cc(S(=O)(=O)n2cnc(C)c2)ccc1Cl | inactive: 15.9% | –
23 | CN(Cc1cnn(C)c1)Cc1nc(Cc2ccccc2Cl)no1 | inactive: 8.48% | –

Row | Compound | growth rescue (activation) | Potency
24 | O=C(COc1cccnc1[N+](=O)[O-])Nc1ccc(Cl)cc1F | inactive: 8% | –
25 | CCCN(CCC)CCOc1cc(C)ccc1C(C)C | inactive: 6.11% | –
26 | CC(=O)Nc1ccc(OCC(=O)NCc2ccccc2)cc1 | inactive: 8.18% | –
27 | Cc1cccc(N2CC(C(=O)Nc3ccccc3N3CCOCC3)CC2=O)c1C (stereo not drawn) | inactive: 20.7% | –
28 | Cc1ccc(NS(=O)(=O)c2ccc(Br)s2)cc1S(=O)(=O)N1CCOCC1 | inactive: 3.8% | –
29 | COc1ccc(C(=O)C2CCCN(C(=O)c3ccc(F)cc3)C2)cc1OC (stereo not drawn) | inactive: 30.7% | –
30 | O=C(NCc1ccc(Cl)cc1)C1CCN(C(=O)c2ccco2)CC1 | inactive: -5.36% | –
31 | COc1ccc(OCCN2CCN(C(=O)c3ccc(OC)cc3)CC2)cc1 | inactive: 9.68% | –
32 | O=C(OCC(=O)N1CCCC1)c1cc(Br)ccc1Cl | inactive: 7.59% | –
33 | CC(C)(C)c1ccc(C(CC(=O)O)NC(=O)c2ccccc2F)cc1 (stereo not drawn) | inactive: 6.02% | –
34 | CC1CCc2c(sc(NC(=O)CSc3nc4c(c(C(F)(F)F)n3)CCc3ccccc3-4)c2C(N)=O)C1 (stereo not drawn) | inactive: 4.13% | –
35 | CCOC(=O)N1CCN(C(=O)c2ccc(NS(=O)(=O)c3ccc(C)cc3)cc2)CC1 | inactive: -0.989% | –
36 | Cc1cccc(C)c1NC(=O)c1cn(-c2ccccc2)nc1-c1ccccc1 | inactive: 1.18% | –
37 | CN(C)c1ccc(/C=N/N(CCC#N)C2=NS(=O)(=O)c3ccccc32)cc1 | inactive: 8.38% | –
38 | CN(C)C(=O)c1cccc(-c2cnc3c(NC=O)cc(-c4cccc(C(F)(F)F)c4)cn23)c1 | inactive: 18.7% | –
39 | CC(C)(C)c1cc(Cl)ccc1OCCOCCN1CCCC1 | inactive: 2.83% | –
40 | CC1CCN(CCCN2C(=O)C3C(C(=O)Nc4cccc(Cl)c4)C4C=CC3(O4)C2C(=O)NC2CCCCC2)CC1 (stereo not drawn) | inactive: 7.23% | –
41 | Cc1nc2ccccc2nc1OCc1cccc([N+](=O)[O-])c1 | inactive: 14.1% | –
42 | CCC(=O)NC1(Cc2ccc(O)cc2)CCCCC1 | inactive: 14.3% | –
43 | CC(C)Oc1ccc(C(=O)NCCCNC(=O)c2cccnc2)cc1 | inactive: 9.35% | –
44 | CN(C)S(=O)(=O)c1cccc(NC(=S)NNC(=O)c2cc3ccccc3cc2O)c1 | inactive: 44% | –
45 | Cc1ccc(NC(=O)C(CC(=O)O)C2CCCO2)c(C)c1 (stereo not drawn) | inactive: -8.48% | –
46 | O=S(=O)(Nc1ccc(F)cc1)N1CCOCC1 | inactive: 13.8% | –

Row | Compound | growth rescue (activation) | Potency
47 | Cc1cc(C)n(/N=C/c2ccccc2O)c(=O)c1 | inactive: 17.6% | –
48 | O=C(NCCO)c1ccc(-c2cnc3cccnn23)cc1 | inactive: 9.82% | –
49 | Cc1ccc(C(=O)Nc2nc(-c3ccc([N+](=O)[O-])cc3)cs2)o1 | inactive: 15.6% | –
50 | Cc1nn(-c2ccccn2)c2c1-c1nc(N3CCOCC3)ncc1CC2 | inactive: -16% | –
51 | COc1ccc(CCC(=O)Nc2ccc(C)c(S(=O)(=O)N(C)C)c2)cc1OC | inactive: -8.83% | –
52 | COc1ccc(/C=N/NC(=O)c2ccc(Br)cc2)c(OC)c1 | inactive: -2.89% | –
53 | Cc1ccc(S(=O)(=O)N2CCN(C(=O)C(C)Cn3nc(C)c(C)c3C)CC2)cc1 (stereo not drawn) | inactive: -4.08% | –
54 | CC1=C(C(=O)Nc2ccccc2F)C(c2cccs2)NC(=S)N1 (stereo not drawn) | inactive: -7.53% | –
55 | COc1ccc(C)cc1Nc1nnc(C)c(=O)[nH]1 | inactive: -3.66% | –
56 | CC(C)(C)c1ccc(-c2nc(SCCCOc3ccccc3)n3[nH]c(=O)cc3n2)cc1 | inactive: 7.74% | –
57 | CCn1c(SCC(=O)NNC(=S)Nc2ccccc2)nnc1-c1ccc(Cl)cc1 | inactive: 17.8% | –
58 | COc1ccc(C(=O)CSc2nnc(CNC(=O)c3ccco3)n2C)cc1OC | inactive: 11.6% | –
59 | Cc1ccc(OCC(=O)NCCCNC(=O)c2cccnc2)cc1 | inactive: 1.73% | –
60 | O=C1NCCN1CCNS(=O)(=O)c1ccccc1[N+](=O)[O-] | inactive: 17.3% | –
61 | CCCCC(=O)NC(=S)Nc1cc(C(=O)O)ccc1Cl | inactive: 4.68% | –
62 | COc1ccc(/C=C2\SC(=S)N(N3CCOCC3)C2=O)c(OC)c1 | inactive: -0.681% | –
63 | CN(C)CCNC(=O)c1ccc2c(=O)n3c(nc2c1)CCCCC3 | inactive: -8.65% | –
64 | N#Cc1ccc(CN2C=NS(=O)(=O)c3ccccc32)cc1 | inactive: 12.4% | –
65 | CN1CCN(c2ccc(S(=O)(=O)N3CCCCC3)cc2NC(=O)c2ccc(C#N)cc2)CC1 | inactive: 11.5% | –
66 | O=c1cnn(Cc2ccc(F)cc2)c2ccccc12 | inactive: 2.22% | –
67 | CCCC(=O)N1CCCC(c2cc(C(=O)NCc3ccc(F)cc3)no2)C1 (stereo not drawn) | inactive: 23% | –
68 | CC(C)CC(N)c1csc(NC(=O)c2cc(C(C)(C)C)nn2Cc2ccccc2)n1 (stereo not drawn) | inactive: 14.3% | –
